Test results: PubChem BioAssay AID360 (National Center for Advancing Translational Sciences (NCATS), 2006)
The campaign covered roughly 48,000 compounds. About 550 (1.1%) were called active. This list was built around the results that the source calls inconclusive (neither active nor inactive); the mix of calls is not that of the screen. Rule as the data show it: active = potency below about 15 µM; inconclusive = mostly about 16 µM to 33 µM; inactive = weaker than that. No potency is given beside an inconclusive call; the fits are too rough.
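Also: the screen sought inhibitors.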
Potency is read from the fitted curve at half-maximal effect.

What follows are compounds tested against Lysosomal acid glucosylceramidase (Homo sapiens) (UniProt P04062) (assay: Glucocerebrosidase). Conditions: purified enzyme, resorufin glucoside fluorescence (screen aimed at inhibitors), 20 min.
Sequence of UniProt P04062 (P04062 whole entry, looked up): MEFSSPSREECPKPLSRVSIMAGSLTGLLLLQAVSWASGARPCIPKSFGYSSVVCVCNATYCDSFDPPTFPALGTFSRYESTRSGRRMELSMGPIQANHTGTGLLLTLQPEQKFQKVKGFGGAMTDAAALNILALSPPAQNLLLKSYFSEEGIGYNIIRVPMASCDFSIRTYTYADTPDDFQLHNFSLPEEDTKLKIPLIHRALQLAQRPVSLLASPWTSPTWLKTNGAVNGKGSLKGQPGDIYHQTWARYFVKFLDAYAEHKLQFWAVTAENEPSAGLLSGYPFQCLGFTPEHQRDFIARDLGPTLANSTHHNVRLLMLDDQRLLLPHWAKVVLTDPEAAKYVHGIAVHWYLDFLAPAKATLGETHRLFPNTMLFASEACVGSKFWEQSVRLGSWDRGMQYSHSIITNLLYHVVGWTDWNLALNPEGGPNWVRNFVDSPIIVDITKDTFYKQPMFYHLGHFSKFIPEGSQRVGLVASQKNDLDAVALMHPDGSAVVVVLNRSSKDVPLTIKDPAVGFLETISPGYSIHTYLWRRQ
Procedure, shortened: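 Compounds titrated against 0.2 nM normal enzyme, 30 uM resorufin beta-D-glucopyranoside substrate, citrate/phosphate buffer with taurocholate and tween-20, pH 5.9. Reaction ran 20 min at room temperature; fluorescence (Ex 548/Em 600) gave AC50.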
For `O=C(Nc1ccc(-c2nc3ccccc3[nH]2)cc1)c1ccco1`, the Potency was inconclusive [decreasing].
For `CCOc1ccc2[nH]c(=O)c(CN(Cc3ccc(F)cc3)C(=O)N3CCCC3)cc2c1`, the Potency was inconclusive [decreasing].
For `Cc1cccc(C(=O)Nc2ccc(O)cc2)c1`, the Potency was inconclusive [decreasing].
For `Cc1[nH]nc2c1C(c1cccc(O)c1)C1=C(CC(C)(C)CC1=O)N2` (centres undefined), the Potency was inconclusive [decreasing].
For `Cc1ccc(C)c(N2CCN(S(=O)(=O)c3ccc4c(c3)OCCO4)CC2)c1`, the Potency was inconclusive [decreasing].
`CC(C)n1c(=S)[nH]c2c1c(=O)[nH]c(=O)n2C` was tested, and the Potency was inconclusive [decreasing].
`COc1ccccc1CNC(=O)c1cc2c(s1)CS(=O)(=O)C2` was tested, and the Potency was inconclusive [decreasing].
In the case of `Cc1[nH]nc2nc(SCC(=O)NCC3CCCO3)n(-c3ccc(Br)cc3)c(=N)c12` (centres undefined), the Potency is reported as inconclusive [decreasing].
In the case of `Cc1nnc(NC2CCCCC2)[nH]c1=O`, the Potency is reported as inconclusive [decreasing].
With `CCOc1ccccc1NC(=O)C1CCCN(S(=O)(=O)c2ccc(OC)c(C)c2)C1` (centres undefined) the Potency was inconclusive [decreasing].
In the case of `COc1ccc(S(=O)(=O)C(C#N)c2nc3ccccc3nc2N2CCC(C)CC2)cc1` (centres undefined), the Potency is reported as inconclusive [decreasing].
In the case of `CCc1ccc(NC(=O)CC2NCCNC2=O)cc1` (centres undefined), the Potency is reported as inconclusive [increasing].
In the case of `Cc1cc(C(=O)OCC(=O)N2CCN(c3ccccc3)CC2)c2ccccc2n1`, the Potency is reported as inactive: > 76.9 µM.
For `Cc1ccc(SCc2cc(=O)[nH]c(N3CCCCC3)n2)cc1`, the Potency was inconclusive [decreasing].
For `CCOc1ccc(S(=O)(=O)N2CCN(C)CC2)c(C)c1C`, the Potency was inconclusive [decreasing].
In the case of `CCN(CC(=O)Nc1ccc2c(c1)OCCO2)c1nc(-c2cccnc2)nc2ccccc12`, the Potency is reported as inconclusive [decreasing].
With `Fc1ccccc1-c1nc(-c2ccccc2)no1` the Potency was inconclusive [increasing].
With `CC1(C)Cc2c(sc3c2c(=N)n(Cc2ccco2)c(=O)n3CC(=O)Nc2ccc(Cl)cc2)CO1` the Potency was inactive: > 76.9 µM.
In the case of `Cc1ccc(OCc2nnc(SCC(=O)NCc3ccccc3)n2C)cc1`, the Potency is reported as inactive: > 76.9 µM.
In the case of `CN(C)c1ccc(C(c2nnnn2C(C)(C)C)N2CCc3ccccc3C2)cc1` (centres undefined), the Potency is reported as inactive: > 76.9 µM.
`COc1cccc(C(=O)c2cc3ccc(O)cc3oc2=O)c1` was tested, and the Potency was inconclusive [decreasing].
With `Cn1c(=O)c2c(nc(N3CCNCC3)n2Cc2cccc3ccccc23)n(C)c1=O` the Potency was inconclusive [decreasing].
For `Cc1nn(-c2ccccc2)c(Cl)c1C1C(C#N)=C(N)Oc2n[nH]c(C)c21` (centres undefined), the Potency was inconclusive [decreasing].
In the case of `O=C(Cc1cccs1)Nc1nc2c(s1)CCCC2`, the Potency is reported as inactive: > 76.9 µM.
For `O=C(NC1CCCCC1)N1CCC(c2nc(-c3ccc(S(=O)(=O)N4CCCC4)cc3)no2)CC1`, the Potency was inconclusive [decreasing].
`COc1ccccc1-c1nc(-c2cccc(C)c2)no1` was tested, and the Potency was inactive: > 76.9 µM.
For `CC1CCN(c2ccc(NC(=O)c3cccnc3)cc2)CC1`, the Potency was inconclusive [decreasing].
With `Cc1cc(NC(=O)c2ccc3nc(-c4ccccc4)c(-c4ccccc4)nc3c2)no1` the Potency was active: 14 µM.
For `COc1cccc(NC(=O)CN2CCN(S(=O)(=O)c3ccc(C(C)C)cc3)CC2)c1`, the Potency was inconclusive [decreasing].
With `CCOC(=O)CNC(=O)c1sc2nc(C)cc(C)c2c1N` the Potency was inactive: > 76.9 µM.
`CC(C)Cc1nc2oc3c(N4CCN(CCO)CC4)ncnc3c2c2c1CCCC2` was tested, and the Potency was inconclusive [decreasing].
With `Cc1[nH]nc2c1C(c1ccc(F)cc1)C1=C(CC(C)(C)CC1=O)N2` (centres undefined) the Potency was inconclusive [decreasing].
In the case of `CCOC(=O)c1c(NC(=O)CSc2nnnn2C)sc(C)c1C`, the Potency is reported as inconclusive [increasing].
In the case of `c1ccc(N2CCN(c3nnc(Cc4cccnc4)c4ccccc34)CC2)nc1`, the Potency is reported as inconclusive [decreasing].
With `CCCCN(C)S(=O)(=O)c1ccc(C(=O)Nc2nnc(-c3cccs3)o2)cc1` the Potency was active: 8.22 µM.
For `N#CC(C(=O)OC1CCCCC1)c1nc2ccccc2nc1N1CCOCC1` (centres undefined), the Potency was inactive: > 76.9 µM.
In the case of `CCOC(=O)Cc1nnc2c(Nc3ccc(C)cc3)nc3nonc3n12`, the Potency is reported as inactive: > 76.9 µM.
`CCc1nnc(NC(=O)c2ccc(S(=O)(=O)NCC(C)C)cc2)s1` was tested, and the Potency was active: 1.75 µM.
For `CCn1c(/N=C/c2c[nH]c3ccccc23)nc2ccccc21`, the Potency was inconclusive [decreasing].
`Cc1ccc(NC(=O)NC2=N/C(=C(/C#N)C(=O)N3CCCC3)c3ccccc32)cc1` was tested, and the Potency was active: 9 µM.
In the case of `Nc1c(C(=O)c2ccccc2)oc2ccc(Br)cc12`, the Potency is reported as inactive: > 76.9 µM.
In the case of `CCOC(=O)Nc1ccc(S(=O)(=O)NCCCN2CCOCC2)cc1`, the Potency is reported as inconclusive [decreasing].
In the case of `CCC(C)(C)NC(=O)C(c1cccn1C)N(C(=O)Cn1nnc2ccccc21)c1ccccc1OC` (centres undefined), the Potency is reported as inconclusive [decreasing].
In the case of `O=C(Nc1cccc(-c2cn3cccnc3n2)c1)c1ccc(Br)o1`, the Potency is reported as active: 6.63 µM.
In the case of `Cc1ccc(Cn2c(SCCN3CCOCC3)nc3c2c(=O)n(C)c(=O)n3C)cc1`, the Potency is reported as inconclusive [decreasing].
With `O=C(CCNS(=O)(=O)c1cccs1)NCc1ccco1` the Potency was inconclusive [decreasing].
`CCOc1ccc(NC(=O)CN(C)CC(=O)Nc2ccccc2C#N)cc1OCC` was tested, and the Potency was inconclusive [increasing].
For `CC(=O)N1CN(Cc2ccccn2)Cc2c1sc1c2CCCC1`, the Potency was active: 15.1 µM.
`O=C(CN1CCC(n2nnc3cc(F)ccc32)CC1)Nc1ccc2c(c1)CCC2` was tested, and the Potency was inconclusive [decreasing].
